This is one part of the list. These are noisy estimates, calculated here from bound and input reads.
molecular target: T1, Pho4 (S. cerevisiae) (UniProt P07270); experiment: relative binding free energy (BET-seq); higher = weaker binding; conditions: reference: library average
T1 sequence: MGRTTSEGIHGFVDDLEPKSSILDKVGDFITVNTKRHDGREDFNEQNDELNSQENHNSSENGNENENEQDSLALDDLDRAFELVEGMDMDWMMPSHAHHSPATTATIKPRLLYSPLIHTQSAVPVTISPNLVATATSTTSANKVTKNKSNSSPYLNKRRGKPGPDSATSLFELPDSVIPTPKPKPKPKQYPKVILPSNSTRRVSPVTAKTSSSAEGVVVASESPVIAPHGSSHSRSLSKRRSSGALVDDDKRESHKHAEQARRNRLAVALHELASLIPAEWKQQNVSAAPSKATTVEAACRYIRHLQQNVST

Row | Sequence | relative binding free energy [kcal/mol]
1 | AAGCGCACGTGTTTGG | -0.12
2 | GCTTGCACGTGTAGTT | 0.12
3 | TTATCCACGTGTTTTA | 0.02
4 | TTAGTCACGTGTCATG | 0.04
5 | GGCGTCACGTGGGGCT | -0.05
6 | GTGTCCACGTGGTGTT | -0.04
7 | AAGTGCACGTGGTCTT | -0.13
8 | TGTGACACGTGGATGC | -0.03
9 | GCAATCACGTGGGTTG | -0.02
10 | ATAGGCACGTGTTACT | -0.17
11 | TTAGTCACGTGGCTAG | 0.06
12 | TAGCACACGTGAGTGG | 0.15
13 | GGTAGCACGTGGTCAT | -0.14
14 | ATGGGCACGTGCGGAG | -0.18
15 | TTTGCCACGTGGAGTT | -0.09
16 | TCGAGCACGTGTTGGA | -0.1
17 | ATGTGCACGTGTGCTT | -0.13
18 | TGAAACACGTGTTTGT | 0.02
19 | AGGAGCACGTGGGCGT | -0.2
20 | AGTGTCACGTGTAAAG | 0.05
21 | CGATTCACGTGGTGTC | 0.3
22 | GGTAGCACGTGTAGAT | 0.08
23 | TTTTTCACGTGTGAAG | 0.32

Row | Sequence | relative binding free energy [kcal/mol]
24 | TCAAGCACGTGTTTAT | -0.06
25 | AGTAACACGTGAGAGG | 0.16
26 | GGTAACACGTGGGAAG | 0.02
27 | TTGAGCACGTGGGGCC | -0.21
28 | TTGCTCACGTGTTGCT | 0.16
29 | ATAGTCACGTGAGGCT | 0.41
30 | AGCGTCACGTGTGTTT | 0.13
31 | TTTCTCACGTGTTTGG | 0.23
32 | GTCTTCACGTGGGATG | 0.24
33 | GTTTGCACGTGTGCCT | -0.02
34 | GAGTACACGTGGCTTG | 0.05
35 | CATAGCACGTGTGTTG | -0.12
36 | AAAGTCACGTGGAGTG | -0.03
37 | GGGGCCACGTGAGGGG | 0.13
38 | TAGGACACGTGGAGGA | -0.11
39 | GTATGCACGTGTGTAG | 0.07
40 | AGATTCACGTGGGGGT | 0.21
41 | TATAACACGTGGAGTG | 0.07
42 | TTATCCACGTGGGTCG | 0.03
43 | CGGGGCACGTGCGGAT | -0.17
44 | TCATTCACGTGTGCTT | 0.28
45 | GCTTGCACGTGGTTGC | -0.03
46 | ATCGTCACGTGTTAGG | 0.21

Row | Sequence | relative binding free energy [kcal/mol]
47 | GGAAGCACGTGCGTTT | -0.03
48 | GGTGCCACGTGATGTT | 0.18
49 | TTTGACACGTGGTAGG | -0.08
50 | TTTGGCACGTGCGCGA | -0.21
51 | TGTGGCACGTGATTGC | -0.01
52 | CCTTACACGTGGGGTT | -0.01
53 | TCATGCACGTGTGGGC | -0.07
54 | ATATACACGTGCGGGA | 0.13
55 | AGGGTCACGTGTCAAG | 0.06
56 | TTACTCACGTGGCGGG | 0.13
57 | AAAGTCACGTGTGAGA | 0.17
58 | ATCTTCACGTGGTCGG | 0.14
59 | TGCAACACGTGAGTTT | 0.26
60 | GAAGTCACGTGGAAGG | 0.21
61 | TGTCTCACGTGAAGGG | 0.43
62 | CGTTACACGTGGTTGT | 0.07
63 | CGGGACACGTGGATAG | 0.06
64 | GGAGTCACGTGTGGTG | 0.25
65 | ACGGCCACGTGTGTGT | -0.12
66 | TGTATCACGTGGTTAA | 0.01
67 | ATTTTCACGTGCAATG | 0.22
68 | TAGACCACGTGGGGGG | -0.21
69 | TTTAACACGTGTTTCA | 0.1

Row | Sequence | relative binding free energy [kcal/mol]
70 | AGGGACACGTGCTAGT | 0.08
71 | AGGGTCACGTGCACTG | 0.07
72 | AGGTTCACGTGGCCGG | 0.3
73 | GGTATCACGTGATTAG | 0.29
74 | TTGTGCACGTGGAGGT | 0.06
75 | GCATACACGTGGGTGG | -0.04
76 | ATATACACGTGCAGGG | -0.01
77 | GTGGTCACGTGTTCGG | 0.29
78 | GCGTCCACGTGGTTTT | 0.23
79 | TGTGGCACGTGTCTGT | -0.04
80 | GGGATCACGTGTGGCT | 0.15
81 | AGAGGCACGTGTATAG | -0.03
82 | CGTCGCACGTGGGCGT | -0.24
83 | AACGGCACGTGGTGTG | -0.19
84 | CATTTCACGTGATTAG | 0.25
85 | CATGACACGTGTAGTG | 0.02
86 | CTTAGCACGTGCTGTT | -0.12
87 | GTAGACACGTGGTTGT | 0
88 | TGTCGCACGTGCGGTA | -0.18
89 | AATTTCACGTGGGTGG | 0.31
90 | GTGTCCACGTGTTAGT | 0.12
91 | TGGGTCACGTGGAAGA | 0.05
92 | TGAAGCACGTGCGTTG | -0.08

Row | Sequence | relative binding free energy [kcal/mol]
93 | GGTGTCACGTGGAAGT | 0.15
94 | TTGGCCACGTGATGAT | 0.22
95 | ACTGTCACGTGGGGTT | -0.21
96 | GGTAGCACGTGGAGAT | -0.08
97 | GGGTTCACGTGGTACG | 0.36
98 | TACGGCACGTGAGGAG | 0.02
99 | TTTTACACGTGGGTTC | 0.08
100 | GTTGACACGTGATGCT | 0.08
101 | AGTTCCACGTGGTGCA | 0.12
102 | AATGTCACGTGGGCTG | -0.1
103 | GAGATCACGTGGTGGA | 0.21
104 | TGTAACACGTGCGGGC | -0.07
105 | TGTGTCACGTGAAAAG | 0.27
106 | CTGAGCACGTGGAGTT | 0.01
107 | GGAGACACGTGAGGGC | 0.17
108 | CAATACACGTGGTGGG | -0.02
109 | ATCGGCACGTGATGTG | 0.03
110 | TGTGTCACGTGTAAGG | 0.2
111 | TATAGCACGTGTTAAA | 0.01
112 | TGGGGCACGTGGGGCC | -0.22
113 | TTTGTCACGTGTGCCA | -0.01
114 | ATTATCACGTGATCTG | 0.35
115 | AGCTTCACGTGTTTAG | 0.24

Source: the BET-seq Pho4 binding data (Le et al. 2018)
